Laboratory results from PubChem BioAssay AID1030 (National Center for Advancing Translational Sciences (NCATS), 2008).
In all, about 220,000 compounds went through this assay and about 16,000 (7.3%) were called active. This list was built around the results that the source calls inconclusive (neither active nor inactive); the mix of calls is not that of the screen. Calls follow the shape of the dose curve; as a rule, active = well fitted inhibition curve with a large enough effect (not every such curve was filed as active); inconclusive = small, poorly fitted or top-dose-only effect, or another doubt; inactive = no such curve, though single readings can be large or run the other way. Potencies of inconclusive entries are left out as doubtful fits.

Molecular target: Aldehyde dehydrogenase 1A1 (Homo sapiens) (UniProt P00352)
Chain of UniProt P00352 (P00352 whole entry, looked up): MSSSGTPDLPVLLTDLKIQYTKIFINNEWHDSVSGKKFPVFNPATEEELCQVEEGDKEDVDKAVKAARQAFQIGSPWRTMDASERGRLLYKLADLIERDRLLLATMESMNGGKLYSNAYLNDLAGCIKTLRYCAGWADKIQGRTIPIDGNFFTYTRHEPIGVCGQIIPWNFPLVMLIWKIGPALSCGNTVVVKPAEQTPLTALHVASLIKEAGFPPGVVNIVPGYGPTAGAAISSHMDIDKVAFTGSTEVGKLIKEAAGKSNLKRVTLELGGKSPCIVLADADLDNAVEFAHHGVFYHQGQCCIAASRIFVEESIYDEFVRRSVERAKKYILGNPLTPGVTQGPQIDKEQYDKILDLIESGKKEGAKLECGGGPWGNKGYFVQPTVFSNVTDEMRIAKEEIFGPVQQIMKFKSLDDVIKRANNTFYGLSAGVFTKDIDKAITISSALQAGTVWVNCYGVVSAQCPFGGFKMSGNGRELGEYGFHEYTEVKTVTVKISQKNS
Experiment: qHTS Assay for Inhibitors of Aldehyde Dehydrogenase 1 (ALDH1A1);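 as to activity, negative = inhibition: plate controls were no enzyme wells and a reference inhibitor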
Settings: Purified ALDH1A1, NADH fluorescence, propionaldehyde substrate; series mostly up to 75.3 µM; activity, negative = inhibition: at the top concentration
Potency is read from the fitted curve at half-maximal effect; tags tell the direction and shape of the fitted curve.

Row | SMILES | Potency | activity, negative = inhibition
1 | CC(=O)c1cccc(Nc2ccc(-c3ccccc3F)nn2)c1 | inconclusive [inhibitor, full curve] | –
2 | COC(=O)c1onc(-c2ccccc2)c1C(=O)OC | – | inactive: 9.78%
3 | O=c1[nH]c2ccccc2n1CCCSCCCn1c(=O)[nH]c2ccccc21 | inconclusive [inhibitor, single point] | –
4 | CCCn1c(C)cc(-c2csc(N)n2)c1C | active: 11.2 µM | –
5 | O=C(c1ccc(C(F)(F)F)cc1)C1CCCN(C(=O)CCN2CCCO2)C1 (centres undefined) | – | inactive: 6.28%
6 | CC1CCN(c2nnc(N)s2)CC1 | inconclusive [inhibitor, single point] | –
7 | COC(=O)c1cc(Cl)c(NC(=O)C(C)C)cc1OC | – | inactive: 8.17%
8 | CCOC(Cn1c(SCc2cc(C(C)=O)ccc2OC)nc2ccccc2c1=O)OCC | inconclusive [inhibitor, full curve, poor fit] | –
9 | CC1CC(C)CN(CCCNC(=O)CCNC(=O)Cn2ccc3ccccc3c2=O)C1 (centres undefined) | – | inactive: -0.76%
10 | O=c1[nH]c(C(Cl)Cl)nc2sc3c(c12)CCN(Cc1ccccc1)C3 | inconclusive [inhibitor, partial curve] | –
11 | CCOC(=O)N1CCN(c2c(NCc3ccc(Cl)cc3)c(=O)c2=O)CC1 | inconclusive [inhibitor, partial curve] | –
12 | COc1ccccc1CNC(=O)c1cnc2ccccn2c1=O | inconclusive [inhibitor, single point] | –
13 | CCCCn1nnc(NC(=S)NC(=O)c2cccs2)n1 | active: 20 µM | –
14 | Cc1ccc(/C=N/n2nnnc2N)cc1[N+](=O)[O-] | inconclusive [inhibitor, partial curve] | –
15 | CC1(C(=O)NC(=S)N(CCC#N)c2ccccc2)CC1(Cl)Cl (centres undefined) | – | inactive: -8.15%
16 | CC(C)(C)c1nc2ccccc2c2nnc(SCC(=O)NCc3ccco3)n12 | active: 25.1 µM | –
17 | Cc1cc2ccccc2c(=O)n1CC(=O)NCC(=O)N1CCN(c2ccccc2)CC1 | inconclusive [inhibitor, single point] | –
18 | N#Cc1c(N)n(CCOC(=O)c2cccc(Br)c2)c2nc3ccccc3nc12 | inconclusive [inhibitor, partial curve] | –
19 | CCCCCCOc1ccc(N2C(=O)CC(NCCc3ccc(S(N)(=O)=O)cc3)C2=O)cc1 (centres undefined) | inconclusive [inhibitor, single point] | –
20 | COc1ccccc1C/C(N)=N/OC(=O)COc1cccc2ccccc12 | inconclusive [inhibitor, single point] | –
21 | Clc1ccc(CNc2nc(CN3CCOCC3)nc3scc(-c4ccccc4)c23)cc1 | inconclusive [inhibitor, single point] | –
22 | CCCC(=O)NC(=S)Nc1cccc(Cl)c1N1CCCCC1 | inconclusive [inhibitor, single point] | –
23 | CCOC(=O)c1c(C)[nH]c(NC(=O)Nc2c(C)n(C)n(-c3ccccc3)c2=O)c1C | inconclusive [inhibitor, single point] | –
24 | C=CCSc1nnc(C)c(/C=C/Nc2ccc(Cl)cc2)n1 | – | inactive: -6.68%
25 | Cc1nc2c(C(F)(F)F)cccc2c2c1CCS2 | inconclusive [inhibitor, single point] | –

Row | SMILES | Potency | activity, negative = inhibition
26 | Cn1c(C(=O)NCC2CCCO2)cc2c(=O)n(C)c3ccccc3c21 (centres undefined) | inconclusive [inhibitor, partial curve] | –
27 | COc1cc(/C=N/Nc2nc(Nc3ccccc3)nc(N3CCCCC3)n2)ccc1OCC(=O)O | inconclusive [inhibitor, single point] | –
28 | COc1ccc(NC(=O)c2cccn(CC=C(C)C)c2=O)cc1 | inconclusive [inhibitor, single point] | –
29 | Cc1nn(CCC(N)=S)c2nc(-c3cccs3)cc(C(F)(F)F)c12 | active: 12.6 µM | –
30 | CC1CCCCN1S(=O)(=O)c1ccc(C(=O)Nc2sccc2C(N)=O)cc1 (centres undefined) | active: 14.1 µM | –
31 | O=C(NC(=S)Nc1ccc(N2CCOCC2)cc1)c1ccc2c(c1)OCCO2 | active: 20 µM | –
32 | CCN(CC)c1nc2ccccc2nc1C(C#N)C(=O)NCCc1ccccc1 (centres undefined) | inconclusive [inhibitor, single point] | –
33 | CCCOc1ccc(C(=O)Nc2ccc(N3CCN(C(C)=O)CC3)cc2)cc1 | inconclusive [inhibitor, single point] | –
34 | CCCCC[C@H](O)C/C=C1/C(=O)C=C[C@@H]1C/C=C\CCCC(=O)O | inactive | –
35 | CSc1ccccc1NC(=O)CN(C)CC(=O)Nc1ccc(N2CCOCC2)cc1 | – | inactive: -5.23%
36 | CN(C)S(=O)(=O)c1cccc(NC(=O)CSc2nc3c(cc2C#N)C(=O)CC(C)(C)C3)c1 | active: 1.41 µM | –
37 | O=C(NCCc1ccccc1)c1cc(-c2ccco2)on1 | inconclusive [inhibitor, single point] | –
38 | COCOc1ccc(OC)cc1C(=O)C1O[C@H]1c1ccc(OC)c(Br)c1 (some centres undefined) | inconclusive [inhibitor, partial curve] | –
39 | O=C(CN1CCC(NC(=O)c2ccco2)CC1)Nc1ccccc1[N+](=O)[O-] | active: 22.4 µM | –
40 | COCCNC(=O)CSc1nc(-c2ccccc2)cs1 | – | inactive: 0.44%
41 | Cc1ccc(/C=N/c2sc(Cc3ccccc3)c(C)c2C(N)=O)o1 | inconclusive [inhibitor, partial curve] | –
42 | Cn1c(C(=O)OCC(=O)NCCc2ccccc2)cc2sccc21 | – | inactive: -0.229%
43 | O=C(Cn1c(=O)n(CCCC(=O)NC2CCCC2)c(=O)c2ccccc21)NCCC1=CCCCC1 | – | inactive: 12.6%
44 | COc1ccc(/C=C/c2ccncc2)cc1OC | inconclusive [inhibitor, single point] | –
45 | CN1/C(=C\C(=O)Nc2cccnc2)c2ccccc2CC1(C)C | inconclusive [inhibitor, single point] | –
46 | Cc1cccc(C2=N[C@@H](CC(C)C)CO2)c1 | – | inactive: 0.42% [at 120 µM]
47 | Cc1ccc2c(c1C)OC(=O)CC2(C)C | inconclusive [inhibitor, partial curve] | –
48 | Cc1nnc(SCC(=O)NCC2CCCO2)n1-c1ccccc1 (centres undefined) | inconclusive [inhibitor, single point] | –
49 | COc1ccc(CNC(=O)CCOc2ccc(C(C)(C)C)cc2)cc1 | inconclusive [inhibitor, single point] | –
50 | O=C(NC1CCCC1)C1=COCCO1 | inconclusive [inhibitor, single point] | –

Row | SMILES | Potency | activity, negative = inhibition
51 | COc1cc(/C=N/NC(=S)NCCN2CCOCC2)cc(OC)c1OC | inconclusive [inhibitor, single point] | –
52 | OCCNc1ccc(Cl)cc1 | – | inactive: 2.89%
53 | O=C(NNC(=S)Nc1cccc(C(F)(F)F)c1)c1ccc(Cl)cc1Cl | active: 20 µM | –
54 | CC(c1nnc(SCC(=O)N2CC(=O)Nc3ccccc32)n1Cc1ccccc1)N(C)C (centres undefined) | – | inactive: -5.04%
55 | Cc1ccc(NC(=O)C2C(c3ccccc3)C=CC(c3ccccc3)C2C(=O)O)cc1 (centres undefined) | inconclusive [inhibitor, single point] | –
56 | O=C1c2cccnc2C(=O)N1C1CCCCC1 | inconclusive [inhibitor, single point] | –
57 | CC(C)C[C@@H](CC(=O)N[C@H](CC(=O)N[C@@H]1CCCC[C@H]1C(=O)N[C@H](CC(=O)N[C@@H](CCC(=O)O)CC(=O)O)Cc1c[nH]c2ccccc12)C(C)C)NC(=O)[C@@H]1CNCC[C@H]1N | – | inactive: -15.5%
58 | COc1cccc(C(=O)N(CN2CCCC2=O)c2cc(C)on2)c1 | – | inactive: -2.17%
59 | CCc1ccc(N2C(=O)CC(N(CC3CCCO3)C(=O)/C=C/C(=O)O)C2=O)cc1 (centres undefined) | inconclusive [inhibitor, single point] | –
60 | Cn1c(=O)c2c(nc(NCc3ccccc3)n2Cc2ccc(F)cc2)n(C)c1=O | – | inactive: -6.15%
61 | Cc1nn(-c2ccccc2)c(C)c1/C=C/C(=O)OCC(=O)Nc1ncc(C(F)(F)F)cc1Cl | inconclusive [inhibitor, partial curve] | –
62 | COc1ccc(C2(O)CCN(CC(=O)Nc3nccs3)CC2)c(OC)c1 | inconclusive [inhibitor, single point] | –
63 | Cc1ccc(N/C=C2/Sc3ccccc3NC2=O)cc1 | active: 22.4 µM | –
64 | CN1CCN(c2ncc3nc(-c4ccc(Cl)cc4)c(=O)n(C)c3n2)CC1 | inconclusive [inhibitor, partial curve] | –
65 | N#Cc1ccccc1CSc1ccc(-c2nc3ccccc3[nH]2)cn1 | inconclusive [inhibitor, partial curve] | –
66 | C=CCn1c(SCc2ccccc2)nc2scc(-c3ccc(C)o3)c2c1=O | inconclusive [inhibitor, partial curve] | –
67 | NS(=O)(=O)c1ccc(NC(=S)NCc2ccc(F)cc2)cc1 | inconclusive [inhibitor, single point] | –
68 | NC(=S)NNC(=O)[C@@H]1CCCC[C@@H]1C(=O)O | inconclusive [inhibitor, single point] | –
69 | CN(C)/C=N/c1nc2nccc(-c3ccc(F)cc3)n2n1 | inconclusive [inhibitor, partial curve] | –
70 | CCOC(=O)c1sc(SCC(=O)Nc2ccc(N(C)C)cc2)nc1N | active: 22.4 µM | –
71 | COc1ccccc1Cn1c(C)nnc1-c1cnn(C)c1N | – | inactive: -12%
72 | CCc1nc(SCc2ccc(F)cc2)[nH]c(=O)c1C#N | active: 31.6 µM | –
73 | [N-]=[N+]=CC(=O)C(Cc1ccccc1)N1C(=O)c2ccccc2C1=O (centres undefined) | active: 2.82 µM | –
74 | COC(=O)c1c(NC(=O)/C=C/C(=O)O)sc(C)c1-c1ccc(C)cc1 | inconclusive [inhibitor, single point] | –
